Reference: paper PMC7016652
No constants are given. Whether binding was seen depends on the method and setting. Binding seen in cells or lysates may run through a third protein. Some binding calls cover weakened binding; strength is not graded here. Values belong to the substance of their own block, whether it stands above or below them.

What was measured:
GST–p53 (human) = GST–p53 (human) (UniProt P04637); assay: pull-down; GST or GST-p53 purified from E. coli incubated with lysates of H1299 cells transfected with 6Myc-TAZ or its deletion mutants, TNTE buffer, 4 °C, 2 h; immunoblot; only the target purified
6Myc-p53 (human) = 6Myc-p53 (human) (UniProt P04637); assay: co-IP; H1299 cells transiently transfected, lysed after 24 h in TNTE buffer (20 mM Tris-HCl pH 7.5, 120 mM NaCl, 1 mM EDTA, 0.5% Triton X 100); anti-FLAG M2 agarose beads, 4 °C, 2 h; eluted with 3× FLAG peptide; immunoblot
[1] = biological target: p53 (a.a. 90–393) (human) (UniProt P04637); assay: as above
[2] = biological target: p53 (a.a. 90–290) (human) (UniProt P04637); assay: as above
p53 (a.a. 1–290) (human) = p53 (a.a. 1–290) (human) (UniProt P04637); assay: as above
[3] = biological target: endogenous TAZ of MCF7 cells (human (endogenous in MCF7)) (UniProt Q9GZV5); assay: co-IP; endogenous proteins; MCF7 cells treated with 10 μM MG132 for 8 h; anti-TAZ antibody on Dynabeads Protein A; TNTE buffer; immunoblot
[4] = biological target: FLAG-TAZ (transcriptional coactivator with a PDZ-binding motif), full length (UniProt Q9GZV5); assay: co-IP; H1299 cells transiently transfected, lysed after 24 h in TNTE buffer (20 mM Tris-HCl pH 7.5, 120 mM NaCl, 1 mM EDTA, 0.5% Triton X 100); anti-FLAG M2 agarose beads, 4 °C, 2 h; eluted with 3× FLAG peptide; immunoblot
FLAG-TAZ (a.a. 106–400) = FLAG-TAZ (a.a. 106–400) (UniProt Q9GZV5); assay: as above

Substance: 6Myc-TAZ C-terminal portion (a.a. 171–400) (from UniProt Q9GZV5 171-400) (domain or fragment)
binding (GST–p53 (human)): no binding

Substance: 6Myc-TAZ N-terminal portion (a.a. 1–170) (from UniProt Q9GZV5 1-170) (domain or fragment)
binding (GST–p53 (human)): binds

Substance: 6Myc-TAZ, full length (from UniProt Q9GZV5 1-400)
binding (GST–p53 (human)): binds

Results, then the substance that gave them:

binding (6Myc-p53 (human)): binds
Substance: TAZ (as co-expressed for Figure 4F) (from UniProt Q9GZV5 1-400)

binding [1]: no binding
binding [2]: no binding
binding (p53 (a.a. 1–290) (human)): binds
Substance: TAZ (as transfected for Figure 3H) (from UniProt Q9GZV5 1-400)

binding [3]: binds
Substance: endogenous p53 of MCF7 cells (from UniProt P04637 1-393)

binding [4]: binds
binding (FLAG-TAZ (a.a. 106–400)): binds
Substance: p53 (human, transfected) (from UniProt P04637 1-393)
